This is one part of the list.
B1: chr21:34924380:34924381:+_ENSG00000159140_ENST00000381679|hu_mus|FALSE|FALSE (ssRNA)
RNA: GGGAGUUCUACAGUCCGACGAUCCCUAGGUGAUACCCUAUAGGGAUCCGGAGUUAGUCUGUAGGGAUCAUGGCCUAAUCUAUAAGGGUCUUGUCCUAACCUGUAAGCAUCAUGGCCUAACCUGUAGGGGUCAUGACCCAACCUCAACAGAGGAUUGAGCAUCA
B2: chr4:58499471:58499472:-_ENSMUSG00000038668_ENSMUST00000055018|mus_hu|motif|central (ssRNA)
RNA: GGGAGUUCUACAGUCCGACGAUCAGCAUAGAGAACCACCAUUACCACAAAGGUCACCAAGUUGAAAAUGGCCCAGAAGACGGAGUAAGAGUCACUGUAGAGGGGUGCCAUGUUGGAACAAUUUUCAAUAUCACAGAUACAGUUCAACAGAGGAUUGAGCAUCA
B3: 109126449_109126569_1254_3pUTR_ENSMUSG00000028557_ENSMUST00000030284|mouse|control|control (ssRNA)
RNA: GGGAGUUCUACAGUCCGACGAUCUGUCAGUAACUUUUCAGAAAAGAAUUUGGGUGGGAGAAGAAACUUAUUUCAUUUAGGAAAAAUAACAACUAUCUUUUUCCUAAGCUUCAACACACACAAUUUAAACAUGUACAGUUGCUGCAACAGAGGAUUGAGCAUCA
B4: chr7:82072735:82072736:-_ENSG00000153956_ENST00000356860|hu_hu|FALSE|FALSE (ssRNA)
RNA: GGGAGUUCUACAGUCCGACGAUCAGUGACGGCCGAAGGGAACGGCUCCUCCGACGAGGGGCCGAUGAGCAAAGAUUGGAAAAGUGUCAGAGUCAAGGCCAGCAGGCAGCCAGCAGCCAUCUUCGCGAUCGAAGAUCAAUGCCCCAACAGAGGAUUGAGCAUCA
B5: chrX:129364583:129364584:-_ENSG00000056277_ENST00000370978|hu_hu|FALSE|FALSE (ssRNA)
RNA: GGGAGUUCUACAGUCCGACGAUCAGUCUUUGGCUCUUUCUCAGUGACUCCUUCAUGCCUUCCAUAAUAAAACUCAUUGACUAACAUGAUCAACUUUCCUGUCUCUGAAUCAGUCUUGUCUUCAUCACAUGGACGUUCUGAUUUCAACAGAGGAUUGAGCAUCA
B6: chr17:64801638:64801639:+_ENSG00000154229_ENST00000413366|hu_mus|hu_hu_hu_mus_False|98_108 (ssRNA)
RNA: GGGAGUUCUACAGUCCGACGAUCUAUAAAUACAUAUAUAUACACACACAUAUAUAGUAAAACCCUAGUUAAACGUGUAAAGUAGCCAUUCAUUUUUAAAAUUACAUCUACAUUAAAAAAUUAAUAUAUCUGAUAGAGUGCCAGCAACAGAGGAUUGAGCAUCA

Target: T1, UNK ZnF1-3 (human, UniProt Q9C0B0 31-174)
T1 sequence: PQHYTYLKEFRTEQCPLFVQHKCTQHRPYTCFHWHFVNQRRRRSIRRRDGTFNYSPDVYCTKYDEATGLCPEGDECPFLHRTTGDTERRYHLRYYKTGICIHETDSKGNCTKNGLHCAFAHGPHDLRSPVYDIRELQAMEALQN
Experiment: nsRBNS (natural sequence RNA bind-n-seq); RBNS binding buffer (assumed for nsRBNS): 25 mM Tris pH 7.5, 150 mM KCl, 3 mM MgCl2, 0.01% Triton X-100, 500 ug/ml BSA, 20 U/ml SUPERase-In, 4 C; UNK is unkempt and MSI1 is Musashi-1; names of the RNAs are library labels; protein concentration not given here; high values mean tight binding

Row | Binder | binding signal [enrichment R]
1 | B1 | 0.637
2 | B2 | 2.31
3 | B3 | 1.19
4 | B4 | 1.53
5 | B5 | 0.661
6 | B6 | 2.22

— article PMC12136788
